Data: the supplement of paper PMC9446081
Hit rate of the full screen: of about 39,000 compounds, about 220 (0.56%) showed activity. The list shows a part of the results.

tested on: Escherichia coli K-12 BW25113; experiment: relative growth (OD600 normalised to plate interquartile mean) (fraction); higher = less growth inhibition, active = 0.2 or less; details: 50 µM; LB; incubation time: overnight (16-24 h)
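Note: static incubation at 37 °C against the wild-type strain, values averaged over two biological replicates.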

Row | SMILES | relative growth
1 | COc1ccc(S(=O)(=O)Nc2cccc3c2O[C@H](CN(C)C(=O)NC(C)C)[C@H](C)CN([C@@H](C)CO)C3=O)cc1 | inactive: 0.982
2 | C[C@@H]1CN([C@H](C)CO)C(=O)c2cc(NC(=O)c3ccccc3)ccc2O[C@@H](C)CCCCO[C@H]1CN(C)C(=O)Cc1ccccc1 | inactive: 1.02
3 | C[C@@H]1CCCCO[C@H](CN(C)C(=O)CCCN(C)C)[C@H](C)CN([C@@H](C)CO)C(=O)c2cc(NS(C)(=O)=O)ccc2O1 | inactive: 0.997
4 | CCS(=O)(=O)NCC[C@@H]1CC[C@@H](NC(=O)C2CCOCC2)[C@H](CO)O1 | inactive: 0.982
5 | Cc1ccc(S(=O)(=O)Nc2ccc3c(c2)C(=O)N([C@@H](C)CO)C[C@@H](C)[C@H](CN(C)S(=O)(=O)c2ccc(C)cc2)OCCCC[C@@H](C)O3)cc1 | inactive: 1.02
6 | C[C@@H]1CN([C@H](C)CO)C(=O)c2cc(NS(C)(=O)=O)ccc2O[C@@H]1CN(C)S(=O)(=O)c1cn(C)cn1 | inactive: 0.991
7 | CO[C@@H]1[C@@H](O[C@@H]2O[C@H](C)[C@@H](O[C@H]3C[C@@](C)(O)[C@@H](OC(=O)CC(C)C)[C@H](C)O3)[C@H](N(C)C)[C@H]2O)[C@@H](CC=O)C[C@@H](C)[C@@H](O)/C=C/C=C/CC(C)OC(=O)C[C@H]1OC(C)=O (stereo partly drawn) | inactive: 0.352
8 | C[C@H]1CN([C@@H](C)CO)S(=O)(=O)c2ccc(C#CC3CC3)cc2O[C@H]1CN(C)C(=O)Cc1ccncc1 | inactive: 1
9 | O=C(C[C@@H]1C=C[C@H](NC(=O)c2ccc3c(c2)OCO3)[C@H](CO)O1)NCc1ccc(Oc2ccccc2)cc1 | inactive: 0.984
10 | CC(C)NC(=O)Nc1ccc2c(c1)C(=O)N([C@H](C)CO)C[C@@H](C)[C@@H](CN(C)C(=O)C1CCCCC1)OCCCC[C@H](C)O2 | inactive: 0.995
11 | C[C@H](CO)N1C[C@H](C)[C@H](CN(C)S(C)(=O)=O)Oc2ccc(NC(=O)Nc3ccccc3)cc2C1=O | inactive: 1.02
12 | COC(=O)[C@@]12CC[C@@H](C)[C@@H](C)[C@@H]1C1=CC[C@H]3[C@@]4(C)CC[C@@H](OC(C)=O)C(C)(C)[C@@H]4CC[C@@]3(C)[C@@]1(C)CC2 | inactive: 0.98
13 | C[C@H]1CN([C@@H](C)CO)C(=O)Cc2cc(N(C)C)ccc2O[C@H]1CN(C)C(=O)Nc1ccc2c(c1)OCO2 | inactive: 0.999
14 | C[C@H]1CN([C@@H](C)CO)C(=O)c2cccc(NC(=O)CCCCCC(=O)Nc3ccccc3N)c2O[C@@H]1CN(C)S(C)(=O)=O | inactive: 1.03
15 | C[C@@H]1CN([C@H](C)CO)C(=O)Cc2cc(NC(=O)Nc3ccc(C(F)(F)F)cc3)ccc2O[C@H]1CN(C)S(C)(=O)=O | inactive: 0.971
16 | Cc1ccc(S(=O)(=O)N(C)C[C@H]2Oc3ccc(NS(=O)(=O)c4cccs4)cc3CC(=O)N([C@H](C)CO)C[C@@H]2C)cc1 | inactive: 0.999
17 | Cc1ccc(S(=O)(=O)N(C)C[C@H]2Oc3ccc(NC(=O)c4ccncc4)cc3CC(=O)N([C@@H](C)CO)C[C@H]2C)cc1 | inactive: 1
18 | C[C@H](CO)N1C[C@H](C)[C@@H](CN(C)S(=O)(=O)c2cccs2)Oc2ccc(NS(=O)(=O)c3cn(C)cn3)cc2C1=O | inactive: 0.994
19 | O=C1O[C@H](c2ccccc2)[C@H](c2ccccc2)N2[C@H]1[C@@H](C(=O)Nc1nc3ccccc3s1)[C@]1(C(=O)Nc3ccc(C#CCCO)cc31)[C@H]2c1ccc(OCCO)cc1 | inactive: 1.07
20 | Cn1c(=O)c2c(nc(NCCO)n2C)n(C)c1=O | inactive: 0.906
21 | C[C@@H]1CN([C@@H](C)CO)C(=O)Cc2cc(NC(=O)Nc3ccc(C(F)(F)F)cc3)ccc2O[C@H]1CN(C)CC1CCCCC1 | inactive: 1.01
22 | C[C@@H]1CCCCO[C@H](CN(C)C(=O)Nc2ccccc2)[C@@H](C)CN([C@H](C)CO)C(=O)c2cc(NS(=O)(=O)c3ccc(Cl)cc3)ccc2O1 | inactive: 1.02
23 | COCCOC(=O)N1C(=O)[C@@]2(c3cc(C#CC4(O)CCCCCC4)ccc31)[C@H](C(=O)N1CCN(c3ncccn3)CC1)[C@H]1C(=O)O[C@H](c3ccccc3)[C@H](c3ccccc3)N1[C@@H]2c1ccc(OCCO)cc1 | inactive: 1.03
24 | COc1ccc(NC(=O)N(C)C[C@@H]2Oc3c(NC(=O)CCCCCC(=O)Nc4ccccc4N)cccc3C(=O)N([C@@H](C)CO)C[C@H]2C)cc1 | inactive: 1.01
25 | C[C@@H]1CN([C@@H](C)CO)C(=O)c2cc(NC(=O)CCC(F)(F)F)ccc2O[C@@H](C)CCCCO[C@@H]1CN(C)Cc1ccc(C(=O)O)cc1 | inactive: 1.03
26 | CCCNC(=O)N(C)C[C@H]1Oc2cc(C#Cc3cccc(F)c3)ccc2S(=O)(=O)N([C@H](C)CO)C[C@@H]1C | inactive: 1.01
27 | O=C(C[C@H]1CC[C@H]2[C@@H](COC[C@@H](O)CN2C(=O)Nc2ccc(C(F)(F)F)cc2)O1)NCCc1ccncc1 | inactive: 0.889

Row | SMILES | relative growth
28 | Cc1noc(C)c1S(=O)(=O)N(C)C[C@H]1OCCCC[C@@H](C)Oc2ccc(NC(=O)CCCCCC(=O)Nc3ccccc3N)cc2C(=O)N([C@@H](C)CO)C[C@@H]1C | inactive: 0.982
29 | C[C@@H]1CN([C@@H](C)CO)C(=O)Cc2cc(NC(=O)CCCCCC(=O)Nc3ccccc3N)ccc2O[C@@H]1CN(C)Cc1ccc(C(F)(F)F)cc1 | inactive: 1.04
30 | COc1ccc(C(=O)Nc2ccc(CN3C(=O)[C@@]4(O[C@@H](CC(=O)N5Cc6ccccc6C[C@H]5CO)[C@H]([Si](C)(C)c5ccc(OC)cc5)[C@H]4C)c4ccccc43)cc2)cc1 | inactive: 0.945
31 | CC(=O)c1ccccc1OC[C@@H](O)CN(CCO)CCO | inactive: 0.961
32 | Cc1ccc(S(=O)(=O)Nc2ccc3c(c2)CC(=O)N([C@H](C)CO)C[C@H](C)[C@H](CN(C)Cc2ccc(Cl)c(Cl)c2)O3)cc1 | inactive: 1.02
33 | C[C@@H]1CCCCO[C@@H](CN(C)Cc2ccc(C(F)(F)F)cc2)[C@@H](C)CN([C@@H](C)CO)C(=O)c2cc(NC(=O)c3ccncc3)ccc2O1 | inactive: 0.984
34 | Cc1ccc(S(=O)(=O)N(C)C[C@@H]2Oc3ccc(NC(=O)C4CC4)cc3CC(=O)N([C@H](C)CO)C[C@H]2C)cc1 | inactive: 0.99
35 | COc1ccc([Si](C)(C)[C@H]2[C@H](CC(=O)N3CCC[C@H]3CO)O[C@@]3(C(=O)N(Cc4cccc(N5C(=O)COc6ccccc65)c4)c4ccccc43)[C@@H]2C)cc1 | inactive: 1.03
36 | C[C@H](CO)N1C[C@H](C)[C@@H](CN(C)C(=O)Nc2ccc(F)cc2)Oc2ccc(NC(=O)Nc3cccc4ccccc34)cc2CC1=O | inactive: 1.01
37 | O=C1O[C@@H](c2ccccc2)[C@@H](c2ccccc2)N2[C@@H](c3ccc(O)cc3)[C@]3(C(=O)Nc4ccc(C#CC5(O)CCCCCC5)cc43)[C@@H](C(=O)N3CCCCCCC3)[C@H]12 | inactive: 1.02
38 | COc1ccc2c3c([nH]c2c1)[C@@H](CO)N(C[C@]13CN(C1)C(=O)Cc1cccnc1)S(=O)(=O)c1ccc(cc1)C | inactive: 0.987
39 | O=C(CCCCCNC(=O)OCc1ccc(CO[C@@H]2C[C@H](C3CCCCC3)C=C(C(=O)N3CCN(Cc4ccc5c(c4)OCO5)CC3)O2)cc1)NO | inactive: 0.995
40 | C[C@@H]1CN([C@H](C)CO)C(=O)Cc2cc(NC(=O)CCN3CCOCC3)ccc2O[C@H]1CN(C)C(=O)NC1CCCCC1 | inactive: 0.987
41 | C[C@@H]1CN([C@@H](C)CO)C(=O)c2cccc(NC(=O)Nc3ccc(C(F)(F)F)cc3)c2O[C@H]1CN(C)C(=O)Nc1ccccc1 | inactive: 0.94
42 | COc1ccc(NC(=O)Nc2ccc3c(c2)C(=O)N([C@H](C)CO)C[C@H](C)[C@@H](CN(C)C(=O)c2ccccc2)OCCCC[C@@H](C)O3)cc1 | inactive: 0.967
43 | COc1ccc(NC(=O)N(C)C[C@@H]2Oc3ccc(NC(=O)Nc4cccc5ccccc45)cc3C(=O)N([C@H](C)CO)C[C@H]2C)cc1 | inactive: 1
44 | O=C(C1=C[C@H](c2coc3ccccc3c2=O)C[C@H](OCCCCO)O1)N1CCN(Cc2ccc3c(c2)OCO3)CC1 | inactive: 1.04
45 | COCCNC(=O)C[C@H]1CC[C@H]2[C@@H](COC[C@H](O)CN2S(=O)(=O)c2ccccc2C)O1 | inactive: 1
46 | C[C@H](CO)N1C[C@H](C)[C@H](CN(C)Cc2ccc(Oc3ccccc3)cc2)Oc2ccc(NC(=O)CCC(F)(F)F)cc2CC1=O | inactive: 0.988
47 | COc1ccc(NC(C)=S)cc1C | inactive: 0.995
48 | C[C@@H]1CN([C@H](C)CO)C(=O)c2ccccc2-c2ccccc2CO[C@@H]1CN(C)C(=O)Nc1cccc(Cl)c1Cl | inactive: 1.01
49 | CO[C@@H]1CN(C)C(=O)c2cc(NC(=O)Nc3ccccc3Cl)ccc2OC[C@@H](C)N(Cc2ccccc2C(=O)O)C[C@H]1C | inactive: 1
50 | COc1ccc(-c2cccc(-c3ccc([C@H]4CC(=O)C[C@@H](c5ccccc5)C45C(=O)OC(C)(C)OC5=O)cc3)c2)cc1 | inactive: 1
51 | C[C@@H]1CN([C@H](C)CO)C(=O)c2cccc(NS(=O)(=O)c3ccccc3)c2O[C@H]1CN(C)Cc1ccc(Oc2ccccc2)cc1 | inactive: 1.04
52 | C[C@H]1CN([C@@H](C)CO)C(=O)c2cc(NC(=O)CCC(F)(F)F)ccc2O[C@@H]1CN(C)Cc1ccc(C(F)(F)F)cc1 | inactive: 1.04
53 | C[C@@H]1CCCCO[C@H](CN(C)S(=O)(=O)c2cccs2)[C@@H](C)CN([C@H](C)CO)C(=O)c2cc(NS(=O)(=O)c3ccc(Cl)cc3)ccc2O1 | inactive: 0.977
